Assay results taken from the supplement of paper PMC3334620.
Whole data set: some 33,000 sequences, median “E-score (-0.5 to 0.5)” near -0.013, cut for the highest 2% near 0.3. Some of the results follow.

Target: T1, Msn1 (UniProt P22148)
T1 sequence: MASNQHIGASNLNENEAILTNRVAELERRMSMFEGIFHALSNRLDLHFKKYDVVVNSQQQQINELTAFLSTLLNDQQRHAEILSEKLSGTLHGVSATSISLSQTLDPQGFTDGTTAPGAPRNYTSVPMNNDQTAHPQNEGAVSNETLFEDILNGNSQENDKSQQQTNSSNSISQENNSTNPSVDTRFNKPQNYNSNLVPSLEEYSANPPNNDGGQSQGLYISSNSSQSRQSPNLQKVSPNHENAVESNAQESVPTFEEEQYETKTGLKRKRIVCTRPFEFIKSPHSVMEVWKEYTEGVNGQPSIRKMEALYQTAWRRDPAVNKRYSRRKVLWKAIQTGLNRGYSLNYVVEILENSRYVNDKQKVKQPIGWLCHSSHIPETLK
Test: PBM E-score (8-mer binding enrichment) (E-score (-0.5 to 0.5)); higher = stronger / more preferred TF binding; most listed sequences are background and not binding sites
Conditions: protein concentration: 200 nM; construct: GST-full length
Description: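 Universal 'all 10-mer' protein binding microarrays (Agilent AMADID 015681) probed with GST-tagged S. cerevisiae TFs (full-length or DBD) made by in vitro transcription/translation (PURExpress), about 100-200 nM. Bound TF was detected with fluorescent anti-GST. Each ungapped 8-mer (which stands for itself and its reverse complement) is scored by the PBM enrichment score (E-score), a modified Wilcoxon-Mann-Whitney statistic from -0.5 to +0.5, computed with the Universal PBM Analysis Suite. Scale: above 0.35 generally sequence-specific binding.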

Sequence | PBM E-score
CTCGGTCC | -0.0715
CCAGACAC | 0.0047
CGAGGGGC | -0.239
CCCACTCG | -0.125
ATTAGTTC | 0.0351
ACCTTTCC | -0.051
TAGGCTGA | -0.0437
AAAAGTTG | 0.0736
TAGGGCCA | -0.166
ACCGTCAG | -0.0901
CAAACTCA | -0.00805
CGCCAATC | -0.0945
CGCAGGAC | -0.139
CATATATG | 0.113
TACTTGGA | 0.281
ATACAGCA | 0.103
CAGCCGGG | -0.13
GTGACGGA | -0.0631
GGCCCTGA | -0.251
TATGTTAA | 0.0935
CGCGACTA | 0.0078
CGCTCTAA | -0.105

Sequence | PBM E-score
GACGAGAC | -0.0871
AAAAGACT | -0.169
AATGTCAT | 0.46
TAGAGTCA | -0.295
ATGCTCCC | -0.341
GTTTTCCA | 0.102
ACTAGCGG | -0.0482
GGTGAAGA | -0.0988
ATCGGACG | 0.00151
CAAGGAAA | -0.168
CTCTGAAC | -0.225
CGGATGAC | 0.0481
CGCATTGA | 0.0594
ATTCAGGG | -0.0252
CGCTTGAC | -0.059
CGTATTAC | -0.0341
GACCCTAA | -0.0466
GAGTTTAA | 0.134
ACTTCTTC | 0.0754
CCCCTCTA | -0.338
CCTGCTGA | 0.00102
AAGGTCAC | -0.18

Sequence | PBM E-score
TCAGAAAA | -0.0388
GAGCAAGC | -0.0784
AACTACAG | -0.12
AATCTAGT | 0.0987
AGGGGGAA | -0.304
CTCAGCAG | -0.189
CGTTCACA | -0.0515
CCGAACAA | 0.185
AAGGTTGA | 0.0575
CACCAGGA | 0.0365
TACGGTGA | 0.059
CGCCCTCC | -0.372
AGCGGGCC | -0.14
GCCAGGGC | -0.166
CTCTGCCC | 0.0128
AAGGACTA | -0.00885
GTACGCGA | -0.032
GCTATCAC | -0.0524
TGGCCACA | -0.0107
ATATCCGG | 0.11
CCTGGTTA | -0.132
ACAAATTG | 0.301

Sequence | PBM E-score
TCTCAGCA | -0.0811
TATTCGGA | 0.223
CGACCGAC | 0.0415
TGGGCGAA | -0.0188
GAACCGGA | 0.0451
ATCCGTTA | 0.282
AGTAATCA | -0.0522
AGGATGCA | -0.0883
GAACGCAC | -0.0524
ACGTCCTA | 0.354
CAAAGACA | 0.361
CCACTCGC | -0.106
CAGTCGGG | -0.0537
TACGCACA | 0.0572
CGCTGGGC | -0.0718
ACAAATAA | 0.307
AGGTCCGC | -0.282
CGATCGCA | 0.0328
GGACCTGA | -0.11
AAAGCTAA | 0.0573
